Results as given in PubChem BioAssay AID1745853 (National Center for Advancing Translational Sciences (NCATS), 2022).
Some of the results follow. These are further read-outs of the screen, such as a control signal, another cell line or another target. No call is given for them.

Experiments:
Assay in all cases: Primary Screen for Target Class Profiling of Small Molecule Inhibitors of Methyltransferases
[1] = biological target: Glycine N-methyltransferase (Homo sapiens) (UniProt Q14749); settings: purified enzyme, MTase-Glo SAH luminescence; measured here: GNMT inhibition; at 40 µM; stronger effect = lower value
Method in brief: (§1)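 Each enzyme was assayed with SAM and its substrate. SAH formation detected by MTase-Glo luminescence; single-point 40 uM screen[…].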

[2] = biological target: Guanidinoacetate N-methyltransferase (Homo sapiens) (UniProt Q14353); settings: purified enzyme, MTase-Glo SAH luminescence; measured here: GAMT inhibition; at 40 µM; stronger effect = lower value
Method in brief: as §1

[3] = biological target: Histamine N-methyltransferase (Homo sapiens) (UniProt P50135); settings: purified enzyme, MTase-Glo SAH luminescence; measured here: HNMT inhibition; at 40 µM; stronger effect = lower value
Method in brief: as §1

[4] = biological target: Nicotinamide N-methyltransferase (Homo sapiens) (UniProt P40261); settings: purified enzyme, MTase-Glo SAH luminescence; measured here: NNMT inhibition; at 40 µM; stronger effect = lower value
Method in brief: as §1

[5] = biological target: Phenylethanolamine N-methyltransferase (Homo sapiens) (UniProt P11086); settings: purified enzyme, MTase-Glo SAH luminescence; measured here: PNMT inhibition; at 40 µM; stronger effect = lower value
Method in brief: as §1
% is set by controls: 0 for no effect and ±100 for the full control effect.

| SMILES | activity change, negative = inhibition [1] [%] | activity change, negative = inhibition [2] [%] | activity change, negative = inhibition [3] [%] | activity change, negative = inhibition [4] [%] | activity change, negative = inhibition [5] [%] |
| --- | --- | --- | --- | --- | --- |
| Cc1ccc(-c2nnn3c2nc(N2CCCCC2)c2ccccc23)cc1 | 2.44 | 0.251 | 10.1 | 13.7 | 2.42 |
| COc1ccc(-c2nnc(-c3ccc(OC)c(S(=O)(=O)N4CCCCC4)c3)o2)cc1OC | -18.7 | 1.99 | -10.4 | -12.8 | -5.93 |
| CCOc1ccc(N(C(=O)C(C)C)S(=O)(=O)c2ccc3c(c2)n(C)c(=O)n3C)cc1 | 3.45 | 0.122 | 9.17 | 4.6 | 1.79 |
| CC1=C[C@@H](CO)[C@H](C(C)C)C[C@H]1CC(=O)NCc1cc(F)cc(F)c1 | -6.19 | -4.82 | -1.78 | -8.38 | -2.61 |
| CC(C)(C)OC(=O)c1ncn2c1C(C)(C)Nc1ccccc1-2 | -8.59 | 5.98 | 2.04 | -10.3 | 1.96 |
| COc1nc2ccc(Br)cc2cc1[C@@H](c1ccccc1)[C@@](O)(CCN(C)C)c1cccc2ccccc12 | -3.27 | -26.1 | -1.49 | -26.8 | -14.1 |
| CNc1cc2[nH]c(=O)n(-c3ccc(NC(=O)NS(=O)(=O)c4ccc(Cl)s4)cc3)c(=O)c2cc1F | -0.493 | -2.97 | -2.61 | -15.5 | -13.3 |
| CC(=O)/C=C/[C@H]1[C@](C)(O)[C@@H](O)[C@H](O)C2C(C)(C)CCC[C@@]21C (stereo not given in full) | -5.05 | -6.66 | 3.36 | -16.5 | -9.71 |
| O=C(Cn1c(=O)oc2cc(S(=O)(=O)N3CCCC3)ccc21)NCCc1ccc(Cl)cc1 | 3.31 | 0 | 4.45 | 6.85 | -1.79 |
| C[C@@H](OC(=O)/C=C/c1ccc(O)cc1)C1=C[C@]2(C=C[C@@H]3C(C(=O)O)=CO[C@@H](O[C@@H]4O[C@H](CO[C@@H]5O[C@H](CO)[C@@H](O)[C@H](O)[C@H]5O)[C@@H](O)[C@H](O)[C@H]4O)[C@@H]32)OC1=O | 5.12 | 5.28 | 6.5 | -4.81 | 3.17 |
| O=C(c1ccc(F)cc1)N1CCCC(C(=O)N2CCC(c3nc4ncccc4[nH]3)CC2)C1 (stereo not given) | -6.88 | -5.19 | -4.64 | -10.6 | -10.1 |
| CC(=O)N[C@H]1[C@H](O[C@H]2CC[C@@]3(C)C(CC[C@]4(C)C3CC=C3C5CC(C)(C)CC[C@]5(C(=O)O)[C@H](O)C[C@]34C)C2(C)C)O[C@H](CO[C@@H]2OC[C@H](O)[C@H](O)[C@H]2O[C@@H]2OC[C@@H](O)[C@H](O)[C@H]2O)[C@@H](O)[C@@H]1O (stereo not given in full) | 1.33 | 2.55 | 10.5 | -12.2 | -3.17 |
| CN1c2cc(C(=O)NCc3ccccc3)ccc2C(=O)N2CCCC21 (stereo not given) | -4.64 | 2.16 | -3.42 | 0.054 | 14.2 |
| C[C@@H]1[C@H]2[C@H](O[C@@H]3O[C@H](CO)[C@@H](O)[C@H](O)[C@H]3O)OC=C(C(=O)O)[C@H]2C[C@@H]1OC(=O)/C=C/c1ccc(O)cc1 | 3.52 | 4.57 | 10.6 | -8.18 | 1.68 |
| C[C@@H]1C[C@H](O[C@@H]2O[C@H](CO[C@@H]3OC[C@](O)(CO)[C@H]3O)[C@@H](O)[C@H](O)[C@H]2O)CC(C)(C)[C@H]1/C=C/[C@@H](C)O | 0.655 | -2.6 | 8.46 | -15.1 | 3.64 |
| CCCn1c(=O)c2ccc(C(=O)NC(C)C)cc2n2c(=O)n(Cc3cccc(C)c3)nc12 | 0.516 | 0.23 | 7.12 | -8.46 | 4.28 |
| Cc1ccc(NC(=O)C2CCc3nnc(C4CCN(C(=O)NC(C)(C)C)CC4)n32)cc1 (stereo not given) | -2.51 | -7.58 | -1.47 | -10.3 | -2.97 |
| CCOC(=O)c1cc2n(n1)CC(C)(C(=O)NCc1ccccc1OC)N(c1ccc(F)cc1)C2=O (stereo not given) | 4.94 | 0 | 5 | 10.4 | 4.34 |
| C[C@](N)(Cc1ccc(O)c(O)c1)C(=O)O | -55.3 | -0.278 | -6.96 | -10.9 | -1.65 |
| COc1ccc(-c2n[nH]n3c2nc(=O)c2ccc(C(=O)NCc4ccccc4F)cc23)cc1 | -22.4 | 2.31 | -4.12 | -2.53 | -11 |
| Cc1cccc(CSc2nnc3n(C)c(=O)c4ccc(C(=O)NC5CCCC5)cc4n23)c1 | -0.131 | 0 | 10.7 | 8.71 | 7.06 |
| O=C(CN1C(=O)C(c2ccccc2)=NC12CCCC2)NC1CCCC1 | 5.38 | -0.945 | 0.791 | -5.28 | -0.751 |
| CC(C)Cn1c(=O)c2ccc(C(=O)NC3CCCCC3)cc2n2c(=O)n(Cc3ccccc3)nc12 | 4.69 | 1.01 | 9.81 | 3.23 | 5.94 |
| CC[C@@H](C)[C@@H]1OC2(C=C[C@H]1C)C[C@@H]1C[C@H](C/C=C(\C)[C@H](O[C@H]3C[C@H](OC)[C@H](O[C@H]4C[C@H](OC)[C@H](NC(C)=O)[C@H](C)O4)[C@H](C)O3)[C@H](C)/C=C/C=C3\CO[C@H]4[C@H](O)C(C)=C[C@@H](C(=O)O1)[C@@]34O)O2 (stereo not given in full) | -6.18 | 23.9 | -1.54 | -8.11 | -4.68 |
| c1cnc(N2CCN(Cc3ccc4c(c3)OCO4)CC2)nc1 | 11.2 | 11.7 | 13.8 | -6.02 | -1.4 |
